The subject of the series is ATP. Briefly: switch fluorescence ratio, 500 uM ATP over buffer (Cy3 cluster intensity, sum of 5 cycles each) (fold (ratio)); higher = stronger signal-on switching upon ATP binding; sequences stand for … in TCGTCGGCAGCGTCAGATGTGTATAAGAGACAGTTTTTTTTTTTTTTTTTTTTTTTTT…TC. The note with it: aptamer strand: ATP DNA aptamer (quencher-CACCTGGGGGAGTATTGCGGAGGAAGG + anchor), 100 nM annealed; ATP concentration: 500 uM; one replicate. Summed up: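 Per cluster, summed Cy3 intensity from the target cycles was divided by that from the buffer cycles to give the fluorescence ratio, then averaged per switch-domain sequence. Clusters outside 100-1000 RFU were excluded. The Cy3-labelled switching-strand clusters, on a modified Illumina MiSeq flow-cell, were annealed to 100 nM quencher-labelled ATP aptamer and imaged in selection buffer, then after 15 min with 500 uM ATP at 22 °C, for five cycles with NaOH stripping and re-annealing between them.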

The record followed here is the supplement of paper PMC10126150.

Values marked as one replicate rest on one cluster of the flow cell; about a third of the high ones do not repeat.
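Note: ATP exposure 15 min at 22 °C before imaging.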

As to GAGTAAAATA, the switch fluorescence ratio worked out at 1.03.

With TGTATTAAA, the switch fluorescence ratio came to 1.05.

For ACATGCATCA, the switch fluorescence ratio was found to be 1.05. For TGTTGCAGCA the value was 1.01; for TCAGATTAGG, 0.956; for TTATCAGCTT, 1.08.

As for TGGACAATTA, the switch fluorescence ratio amounted to 1.05. With AGGGTACACT, the switch fluorescence ratio is 1.02. For CACACGCCGA the value was 1.09; for ACCTTCCGAA, 2.87; for CGGTTGGGA, 1.03. For GGTTTACTAC the value was 0.952. As for GGATCTTTCG, the switch fluorescence ratio worked out at 0.992.

For GTGTCCCGTC, the switch fluorescence ratio was determined as 0.999. The value for GCAGCTGACG was 1.06; that for TTGCGCTTGG was 1.03. In the case of AATACAAGTT, the switch fluorescence ratio is 1.01.

As for TTCGGCCATC, the switch fluorescence ratio is 1. Regarding CAACCAAGGG, the switch fluorescence ratio was determined as 1.05.

For the sequence GTGTTAACCC, the switch fluorescence ratio came out at 0.991. For TGTTCGCAGC the value was 1.3; for AGCTCTCCGG, 1.18; for ATCCGTACTG, 1.06. For GCATAAGAGC the value was 1. The value for AAGTTGGAAG was 1.01; that for CTTGATCATG was 0.954; that for CAGGTCTCGG was 1.02. Turning to AACGATTCTG, the switch fluorescence ratio is 1.11. Turning to GAACCGTAT, the switch fluorescence ratio is 1.19. Turning to ATCACCAGGC, the switch fluorescence ratio worked out at 1.16. In the case of GCTTGGGCGT, the switch fluorescence ratio was determined as 0.976. Take CGTGAGCAAG: the switch fluorescence ratio was found to be 1.13. For ACCCAGGTGA the value was 1.17; for TGCGGCCTAG, 1.02. For ACAGATCTTT, the switch fluorescence ratio was 0.999. On to TGCCAGTACT, for which the switch fluorescence ratio came out at 1.05. The value for GGTCCAACTT was 1.02; that for GGTCCTATAT was 0.975; that for ATATGAAGCT was 0.983.

Turning to GGAAGTCGC, the switch fluorescence ratio came out at 1.

For the sequence CCAGAGCCTT, the switch fluorescence ratio was 1.48. The value for GCAGTTTTGT was 0.961; that for CTGGGTGACA was 0.996; that for ATCCATACGG was 1.08. For TGGCCGGGTC the value was 1.08; for AAGTAGAGCG, 1; for TGAGGCTAGC, 0.999.

Turning to CCTAGGCATG, the switch fluorescence ratio is 1.26.

Turning to CCGCAGGATT, the switch fluorescence ratio was 3.86. As for TTAAGATGTG, the switch fluorescence ratio was 0.971. AGCCCTGTCT: the switch fluorescence ratio worked out at 1.03.

Consider GGTCCGGCTT, for which the switch fluorescence ratio was determined as 0.998. For AACGCGGGAT the value was 0.973; for TTTGAAATGC, 0.994. With AGTTAAAACT, the switch fluorescence ratio came to 1.03. For GATAAGGTTA the value was 1.07; for ATCCCATGGC, 1.03; for AGACTGGAGA, 0.991. Consider GTGGAGTGGT, for which the switch fluorescence ratio was found to be 1.02. For CCTCATCCTT the value was 1.12; for GCCTGCTGTT, 1.

As for TTTATGTAGT, the switch fluorescence ratio was determined as 1.04. For TATTGTCACC the value was 0.989; for AGCGTAACGG, 0.995. The value for TAGAGTTTCC was 0.996; that for TTTTATAAGC was 0.958; that for TACTACGGAC was 1.62. The value for CGGAAAAACC was 0.983; that for GGATACGCAT was 2.09. In the case of TCAGTATTAC, the switch fluorescence ratio was determined as 1.15. The value for ATTTTTTCAT was 1; that for ATGGTAGGTC was 0.965.

In the case of AGCATGGGTA, the switch fluorescence ratio was determined as 0.947. The value for TTGCCGGCGC was 1.02. For ATCAGAATGC the value was 1; for TACGCTCTGG, 1.02; for GCTGGATAC, 1.22. The value for ACAAGCGCGA was 0.999.
